For twelve compounds, IC50 results are on record in US20250262222A1, “HETEROCYCLIC COMPOUNDS, COMPOSITIONS THEREOF, AND METHODS OF TREATMENT THEREWITH” (BeiGene Switzerland GmbH, priority 2022, published 2025).

In assay [1] the target is GST-tagged GDP-loaded WT KRAS (amino acids 1-169) (Homo sapiens, UniProt P01116). The assay can be described thus: biochemical.
Assay [2] deals with GST-tagged GDP-loaded KRAS G12V (amino acids 1-169) (Homo sapiens, UniProt P01116, G12V). The assay can be described thus: biochemical.

The term IC50 denotes the concentration at which inhibition is half-maximal.

As for `N#Cc1c(N)sc2c(F)ccc(-c3cc4c5c(nc(OC[C@@]67CCCN6C[C@H](F)C7)nc5c3F)N3CCOC[C@H]3CO4)c12` [Example 1, 2-amino-7-fluoro-4-((S)-4-fluoro-2-(((2R,7aS)-2-fluorotetrahydro-1H-pyrrolizin-7a(5H)-yl)methoxy)-8a,9,11,12-tetrahydro-8H-[1,4]oxazino[3′,4′:3,4][1,4]oxazepino[5,6,7-de]quinazolin-5-yl)benzo[b]thiophene-3-carbonitrile], the IC50 in assay [1] worked out at 1.3 nM; in assay [2], 0.93 nM.
Regarding `C#Cc1c(F)ccc2cc(O)cc(-c3cc4c5c(nc(OC[C@@]67CCCN6C[C@H](F)C7)nc5c3F)N3CCOC[C@H]3CO4)c12` [Example 2, 5-ethynyl-6-fluoro-4-((S)-4-fluoro-2-(((2R,7aS)-2-fluorotetrahydro-1H-pyrrolizin-7a(5H)-yl)methoxy)-8a,9,11,12-tetrahydro-8H-[1,4]oxazino[3′,4′:3,4][1,4]oxazepino[5,6,7-de]quinazolin-5-yl)naphthalen-2-ol], the IC50 in assay [1] was determined as 4.3 nM; in assay [2], 1.7 nM.
On to `Nc1cc(Cl)c(C(F)(F)F)c(-c2nc3c4c(nc(OC[C@@]56CCCN5C[C@H](F)C6)nc4c2F)N2CCOC[C@H]2CO3)c1` [Example 3, 3-chloro-5-((S)-1-fluoro-11-(((2R,7aS)-2-fluorotetrahydro-1H-pyrrolizin-7a(5H)-yl)methoxy)-5a,6,8,9-tetrahydro-5H-4,7-dioxa-3,9a,10,12-tetraazabenzo[4,5]cyclohepta[1,2,3-de]naphthalen-2-yl)-4-(trifluoromethyl)aniline], for which the IC50 in assay [1] turned out to be 8 nM; in assay [2] it was 3 nM.
`Oc1cc(Cl)c(C2CC2)c(-c2nc3c4c(nc(OC[C@@]56CCCN5C[C@H](F)C6)nc4c2F)N2CCOC[C@H]2CO3)c1` [Example 6, 3-chloro-4-cyclopropyl-5-((S)-1-fluoro-11-(((2R,7aS)-2-fluorotetrahydro-1H-pyrrolizin-7a(5H)-yl)methoxy)-5a,6,8,9-tetrahydro-5H-4,7-dioxa-3,9a,10,12-tetraazabenzo[4,5]cyclohepta[1,2,3-de]naphthalen-2-yl)phenol]: the IC50 is 3.7 nM in assay [1] and 2.7 nM in assay [2].
For `C#Cc1c(F)ccc2cc(O)cc(-c3nc4c5c(nc(OC[C@@H]6C[C@@H](F)CN6C)nc5c3F)N3CCOC[C@H]3CO4)c12` [Example 7, 5-ethynyl-6-fluoro-4-((S)-1-fluoro-11-(((2S,4R)-4-fluoro-1-methylpyrrolidin-2-yl)methoxy)-5a,6,8,9-tetrahydro-5H-4,7-dioxa-3,9a,10,12-tetraazabenzo[4,5]cyclohepta[1,2,3-de]naphthalen-2-yl)naphthalen-2-ol], the IC50 in assay [1] was found to be 1.9 nM; in assay [2], 1.1 nM.
With `C#Cc1c(F)ccc2cc(O)cc(-c3nc4c5c(nc(OCC6(CN7CCOCC7)CC6)nc5c3F)N3CCOC[C@H]3CO4)c12` [Example 8, (S)-5-ethynyl-6-fluoro-4-(1-fluoro-11-((1-(morpholinomethyl)cyclopropyl)methoxy)-5a,6,8,9-tetrahydro-5H-4,7-dioxa-3,9a,10,12-tetraazabenzo[4,5]cyclohepta[1,2,3-de]naphthalen-2-yl)naphthalen-2-ol], the IC50 in assay [1] was found to be 1.1 nM; in assay [2], 0.89 nM.
Take `C#Cc1c(F)ccc2cc(O)cc(-c3nc4c5c(nc(OCC67COC(C6)C7)nc5c3F)N3CCOC[C@H]3CO4)c12` [Example 9, (S)-4-(11-((2-oxabicyclo[2.1.1]hexan-4-yl)methoxy)-1-fluoro-5a,6,8,9-tetrahydro-5H-4,7-dioxa-3,9a,10,12-tetraazabenzo[4,5]cyclohepta[1,2,3-de]naphthalen-2-yl)-5-ethynyl-6-fluoronaphthalen-2-ol]: the results for the IC50 in assay [1] and in assay [2] were 18 nM and 24 nM, respectively.
For `N#Cc1c(N)sc2c(F)ccc(-c3c(Cl)c4c5c(nc(OC[C@@]67CCCN6C[C@H](F)C7)nc5c3F)N3C5CCC3(COC5)CO4)c12` (stereo partly drawn) [Example 15, 2-amino-4-(11-chloro-9-fluoro-7-(((2R,7aS)-2-fluorotetrahydro-1H-pyrrolizin-7a(5H)-yl)methoxy)-3,4-dihydro-1H,13H-4,13a-ethano[1,4]oxazino[3′,4′:3,4][1,4]oxazepino[5,6,7-de]quinazolin-10-yl)-7-fluorobenzo[b]thiophene-3-carbonitrile], in that order: 2.1 nM and 2.3 nM.
Take `Nc1cc(Cl)c(C(F)(F)F)c(-c2nc3c4c(nc(OC[C@@]56CCCN5C[C@H](F)C6)nc4c2F)N2CCOC[C@@H]2CCO3)c1` [Example 16, 3-chloro-5-((S)-1-fluoro-12-(((2R,7aS)-2-fluorotetrahydro-1H-pyrrolizin-7a(5H)-yl)methoxy)-5,6,6a,7,9,10-hexahydro-4,8-dioxa-3,10a,11,13-tetraazabenzo[4,5]cycloocta[1,2,3-de]naphthalen-2-yl)-4-(trifluoromethyl)aniline]: the IC50 in assay [1] stood at 1.8 nM; in assay [2], 1.2 nM.
As to `N#Cc1c(N)sc2c(F)ccc(-c3c(Cl)c4c5c(nc(OC[C@@]67CCCN6C[C@H](F)C7)nc5c3F)N3CCOC[C@@H]3CCO4)c12` [Example 18], the IC50 is 0.98 nM in assay [1] and 0.91 nM in assay [2].
As for `Nc1cc(Cl)c(C(F)(F)F)c(-c2nc3c4c(nc(OC[C@@]56CCCN5C[C@H](F)C6)nc4c2F)N2CCOCCC2CO3)c1` (stereo partly drawn) [Example 21, 3-chloro-5-(1-fluoro-12-(((2R,7aS)-2-fluorotetrahydro-1H-pyrrolizin-7a(5H)-yl)methoxy)-5,5a,6,7,9,10-hexahydro-4,8-dioxa-3,10a,11,13-tetraazanaphtho[1,8-ab]heptalen-2-yl)-4-(trifluoromethyl)aniline], the values for the IC50 in assay [1] and in assay [2] were 2.2 nM and 1.8 nM, respectively.
For `C#Cc1c(F)ccc2cc(O)cc(-c3nc4c5c(nc(OC[C@@]67CCCN6C[C@H](F)C7)nc5c3F)N3CCOCCC3CO4)c12` (stereo partly drawn) [Example 22, 5-ethynyl-6-fluoro-4-(1-fluoro-12-(((2R,7aS)-2-fluorotetrahydro-1H-pyrrolizin-7a(5H)-yl)methoxy)-5,5a,6,7,9,10-hexahydro-4,8-dioxa-3,10a,11,13-tetraazanaphtho[1,8-ab]heptalen-2-yl)naphthalen-2-ol], in that order: 0.67 nM and 0.91 nM.
